Values joined by “and” are separate entries in the source; they are usually repeats but may differ in a detail not shown here. Identical values can stand only once. The shares of active, inactive and inconclusive entries below differ from those in the screen. For some of these results: Potencies beside an inconclusive call are fits to weak or partial responses and may not hold up. Active and inactive are the calls of the source. Unless noted, the call rests on the fitted dose curve; in most records, active means well fitted curve in the direction sought with a large enough effect in the repeat runs; inconclusive means weak or mixed curves; inactive means no such curve, though single readings can be large; an effect the other way counts as inactive or inconclusive.
Key:
[1] = qHTS assay for identifying genotoxic compounds that show differential cytotoxicity against isogenic chicken DT40 cell lines with known DNA damage response pathways - wild type cell line (AID 743012); settings: DT40 wild type chicken cells viability, CellTiter-Glo, 40 h; activity change, negative = cytotoxicity: at 68.4 µM (top of the series) unless noted; further: nearly all actives have a fitted effect of over 60% in size; further: potency means the concentration at half of the fitted maximal effect; on activity change, negative = cytotoxicity: on the % scale 0 is the no-effect control and ±100 the full control effect
Outline: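 300 wt DT40 cells/well; cpd (DMSO) pintool-transferred after ~0.5 h at 37 C/5% CO2; 40 h incubation; CellTiter-Glo added, 30 min RT; luminescence read.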

[2] = qHTS assay to identify small molecule antagonists of the androgen receptor (AR) signaling pathway - cell viability counter screen (AID 743033; further: potency means the concentration at half of the fitted maximal effect; nearly all actives have a fitted effect of over 45% in size); settings: AR-bla HEK293 viability, CellTiter-Glo luminescence, 16 h; activity change, negative = cytotoxicity: at 58.5 µM (top of the series)
[3] = qHTS assay to identify small molecule antagonists of the thyroid receptor (TR) signaling pathway (AID 743065); further: nearly all actives have a fitted effect of over 55% in size; further: potency means the concentration at half of the fitted maximal effect
Outline: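 Antagonism measured as loss of luciferase signal in GH3 cells stably carrying a TRE-luciferase reporter, co-treated with compound and T3 (1 nM final) for 23.5 h at 37 C. Viability was read in the same well by CellTiter-Fluor.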

[4] = target: Estrogen receptor (Homo sapiens) (UniProt P03372); test: qHTS assay to identify small molecule antagonists of the estrogen receptor alpha (ER-alpha) signaling pathway (AID 743069; active means well fitted curve in the direction sought with a large enough effect in the signal ratio in the repeat runs, not every such curve was filed as active; inconclusive means weak or mixed curves, or effect the other way; inactive means no such curve, though single readings can be large or run the other way; the % refers to the signal ratio; further: on the % scale 0 is the no-effect control and ±100 the full control effect); settings: HEK293 ER-alpha-UAS-bla, beta-lactamase ratio, antagonist mode; activity, negative = inhibition: at 69.4 µM (top of the series) unless noted
Outline: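 Fluorescence intensity from a beta-lactamase FRET substrate served as the read-out. Cells: HEK293 with stably integrated ER-alpha-UAS-bla reporter. Agonist 17beta-estradiol was co-added with compounds; incubation 18 hr at 37C, substrate 2 hr at room temperature.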

[5] = qHTS assay for identifying genotoxic compounds that show differential cytotoxicity against isogenic chicken DT40 cell lines with known DNA damage response pathways - Rad54/Ku70 mutant cell line (AID 743015); settings: DT40 Rad54/Ku70 mutant viability, CellTiter-Glo, 40 h; activity change, negative = cytotoxicity: at 66.8 µM (top of the series); further: potency means the concentration at half of the fitted maximal effect; nearly all actives have a fitted effect of over 60% in size
[6] = qHTS assay to identify small molecule antagonists of the estrogen receptor alpha (ER-alpha) signaling pathway - cell viability counter screen (AID 743074; calls by dose curve; further: potency means the concentration at half of the fitted maximal effect; nearly all actives have a fitted effect of over 45% in size)
[7] = target: Androgen receptor (Homo sapiens) (UniProt P10275); test: qHTS assay to identify small molecule antagonists of the androgen receptor (AR) signaling pathway (AID 743035; active means well fitted inhibition curve with a large enough effect in the signal ratio in the repeat runs, not every such curve was filed as active; inconclusive means weak or mixed curves, or effect the other way; inactive means no such curve, though single readings can be large or run the other way; the % refers to the signal ratio; further: potency means the concentration at half of the fitted maximal effect); settings: HEK293 AR-UAS-bla, R1881-stimulated, beta-lactamase FRET, 16 h; activity change, negative = inhibition: at 58.5 µM (top of the series) unless noted
Outline: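 In this cell-based reporter screen, compounds were tested in concentration series against R1881-activated HEK293 cells expressing beta-lactamase under UAS control; after 16 h at 37C, FRET substrate was added and fluorescence read 2 h later.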

[8] = target: Androgen receptor (Homo sapiens) (UniProt P10275); test: qHTS assay to identify small molecule agonists of the androgen receptor (AR) signaling pathway (AID 743036; active means well fitted activation curve with a large enough effect in the signal ratio in the repeat runs, with a control signal flat, not every such curve was filed as active; inconclusive means weak or mixed curves, or effect the other way; inactive means no such curve, though single readings can be large or run the other way; the % refers to the signal ratio; further: potency means the concentration at half of the fitted maximal effect); settings: HEK293 AR-UAS-bla GripTite, beta-lactamase FRET ratio, 16 h; activation: at 62.4 µM (top of the series) unless noted
Outline: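 Agonist activity was scored by beta-lactamase reporter fluorescence in stably transfected HEK293 cells exposed to compounds for 16 h at 37C and 5% CO2. Substrate loading took 2 h at room temperature.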

[9] = system: thyroid hormone receptor (rat, GH3 cells); test: qHTS assay to identify small molecule agonists of the thyroid receptor (TR) signaling pathway (AID 743066; calls by dose curve; further: on the % scale 0 is the no-effect control and ±100 the full control effect); settings: GH3.TRE-Luc cells, TR agonist luciferase, 24 h; activation: at 83.9 µM (top of the series) unless noted
[10] = target: Estrogen receptor (Homo sapiens) (UniProt P03372); test: qHTS assay to identify small molecule agonists of the estrogen receptor alpha (ER-alpha) signaling pathway using the BG1 cell line (AID 743079); settings: BG1Luc4E2 cells, ERE-luciferase agonist, 22 h; activation: at 70.3 µM (top of the series) unless noted; further: potency means the concentration at half of the fitted maximal effect; nearly all actives have a fitted effect of over 20% in size
[11] = qHTS assay to identify small molecule antagonists of the estrogen receptor alpha (ER-alpha) signaling pathway using the BG1 cell line (AID 743080; calls by dose curve;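 further: BG1 cells stimulated with 17beta-estradiol alongside compound; nearly all actives have a fitted effect of over 25% in size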; further: potency means the concentration at half of the fitted maximal effect); settings: BG1Luc4E2 ERE-luciferase antagonist mode, luminescence; activity change, negative = inhibition: at 70.3 µM (top of the series) unless noted
Outline: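 Quantitative HTS on the Tox21 10K library: BG1 cells with endogenous ER-alpha and ERE-luciferase reporter, 17beta-estradiol stimulation, 21.5 h compound exposure, luminescence endpoint with parallel fluorescence cytotoxicity counter-read.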

[12] = target: Aromatase (Homo sapiens) (UniProt P11511); test: qHTS assay to identify aromatase inhibitors (AID 743083); further: nearly all actives have a fitted effect of over 55% in size; further: potency means the concentration at half of the fitted maximal effect; on activity, negative = inhibition: on the % scale 0 is the no-effect control and ±100 the full control effect
[13] = qHTS assay to identify small molecule antagonists of the androgen receptor (AR) signaling pathway using the MDA cell line - cell viability counter screen (AID 743041; further: nearly all actives have a fitted effect of over 45% in size; further: potency means the concentration at half of the fitted maximal effect); settings: MDA-kb2 viability, CellTiter-Fluor, 16 h, cells co-treated with R1881 androgen agonist; viability change, negative = cytotoxic: at 70.3 µM (top of the series) unless noted
Outline: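 Using the breast carcinoma line MDA-kb2 AR-luc, test chemicals were co-incubated with R1881 for 16 h; CellTiter-Fluor reagent, added at 15.5 h, provided a fluorescence measure of live cells.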

[14] = qHTS assay to identify aromatase inhibitors - cell viability counter screen (AID 743084); settings: MCF-7 aro ERE viability, CellTiter-Fluor, 24 h; activity change, negative = cytotoxicity: at 70.3 µM (top of the series);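 further: cells stimulated with testosterone during compound exposure; potency means the concentration at half of the fitted maximal effect; nearly all actives have a fitted effect of over 55% in size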
[15] = qHTS assay to identify small molecule antagonists of the thyroid receptor (TR) signaling pathway - cell viability counter screen (AID 743064); settings: GH3.TRE-Luc viability, CellTiter-Fluor, 24 h; activity change, negative = cytotoxic: at 70.3 µM (top of the series) unless noted; further: on the % scale 0 is the no-effect control and ±100 the full control effect; nearly all actives have a fitted effect of over 50% in size
Outline: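 Same-well viability check: GH3.TRE-Luc cells stimulated with 1 nM T3 alongside test compound for 23.5 h, followed by CellTiter-Fluor fluorescence.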

[16] = target: Androgen receptor (Homo sapiens) (UniProt P10275); test: qHTS assay to identify small molecule antagonists of the androgen receptor (AR) signaling pathway using the MDA cell line (AID 743042; further: potency means the concentration at half of the fitted maximal effect; nearly all actives have a fitted effect of over 55% in size)
Outline: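 Antagonist mode: compounds plus R1881 agonist added to MDA-kb2 AR-luc cells, incubated 16 h at 37C. Luciferase reporter luminescence quantified, with multiplexed CellTiter-Fluor readout for cell viability.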

[17] = qHTS assay to identify small molecule antagonists of the estrogen receptor alpha (ER-alpha) signaling pathway using the BG1 cell line - cell viability counter screen (AID 743081);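 further: compound given together with 17beta-estradiol as the ER stimulus; potency means the concentration at half of the fitted maximal effect; nearly all actives have a fitted effect of over 45% in size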
Tags describe the fitted curve by direction and shape or compound fluorescence and quenching.

Sequence of UniProt P03372 (P03372 whole entry, looked up): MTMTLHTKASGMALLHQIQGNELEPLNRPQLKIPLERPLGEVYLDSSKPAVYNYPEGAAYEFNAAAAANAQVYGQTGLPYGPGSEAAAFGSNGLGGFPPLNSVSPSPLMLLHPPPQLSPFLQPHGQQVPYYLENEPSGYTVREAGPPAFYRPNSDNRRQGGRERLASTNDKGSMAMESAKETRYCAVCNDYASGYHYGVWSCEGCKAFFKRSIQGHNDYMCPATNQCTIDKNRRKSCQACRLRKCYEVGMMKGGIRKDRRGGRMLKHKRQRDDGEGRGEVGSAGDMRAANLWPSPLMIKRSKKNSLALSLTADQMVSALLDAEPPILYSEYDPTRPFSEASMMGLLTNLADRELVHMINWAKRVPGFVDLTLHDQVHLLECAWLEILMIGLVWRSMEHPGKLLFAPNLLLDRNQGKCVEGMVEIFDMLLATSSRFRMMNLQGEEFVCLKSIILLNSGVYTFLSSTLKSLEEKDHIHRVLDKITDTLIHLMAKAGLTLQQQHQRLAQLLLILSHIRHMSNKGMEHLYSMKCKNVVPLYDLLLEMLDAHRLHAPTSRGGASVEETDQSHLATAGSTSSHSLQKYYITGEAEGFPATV
Sequence of UniProt P10275 (P10275 whole entry, looked up): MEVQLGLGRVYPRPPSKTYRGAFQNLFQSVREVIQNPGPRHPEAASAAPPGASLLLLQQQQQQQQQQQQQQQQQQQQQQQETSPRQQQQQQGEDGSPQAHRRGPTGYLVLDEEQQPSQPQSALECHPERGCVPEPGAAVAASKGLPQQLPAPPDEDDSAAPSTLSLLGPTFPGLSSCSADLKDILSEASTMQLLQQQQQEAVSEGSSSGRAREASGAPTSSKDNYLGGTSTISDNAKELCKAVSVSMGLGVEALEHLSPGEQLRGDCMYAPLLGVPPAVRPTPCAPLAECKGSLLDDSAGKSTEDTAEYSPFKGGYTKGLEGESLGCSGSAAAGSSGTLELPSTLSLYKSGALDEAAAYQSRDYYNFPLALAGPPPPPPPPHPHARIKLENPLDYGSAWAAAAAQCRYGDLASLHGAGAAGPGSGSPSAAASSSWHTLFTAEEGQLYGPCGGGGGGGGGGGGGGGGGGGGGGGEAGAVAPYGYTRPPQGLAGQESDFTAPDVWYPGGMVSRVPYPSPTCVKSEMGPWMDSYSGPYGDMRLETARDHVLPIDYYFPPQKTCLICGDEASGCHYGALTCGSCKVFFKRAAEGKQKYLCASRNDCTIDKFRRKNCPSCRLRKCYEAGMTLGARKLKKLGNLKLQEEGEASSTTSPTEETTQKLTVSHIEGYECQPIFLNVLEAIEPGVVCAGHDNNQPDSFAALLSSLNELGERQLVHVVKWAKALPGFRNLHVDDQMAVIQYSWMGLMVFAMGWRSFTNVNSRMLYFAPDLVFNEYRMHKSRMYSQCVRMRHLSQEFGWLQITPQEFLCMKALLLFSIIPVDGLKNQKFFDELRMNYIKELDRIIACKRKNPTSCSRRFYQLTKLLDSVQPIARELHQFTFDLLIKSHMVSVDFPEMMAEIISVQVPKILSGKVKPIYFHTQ
Sequence of UniProt P11511 (P11511 whole entry, looked up): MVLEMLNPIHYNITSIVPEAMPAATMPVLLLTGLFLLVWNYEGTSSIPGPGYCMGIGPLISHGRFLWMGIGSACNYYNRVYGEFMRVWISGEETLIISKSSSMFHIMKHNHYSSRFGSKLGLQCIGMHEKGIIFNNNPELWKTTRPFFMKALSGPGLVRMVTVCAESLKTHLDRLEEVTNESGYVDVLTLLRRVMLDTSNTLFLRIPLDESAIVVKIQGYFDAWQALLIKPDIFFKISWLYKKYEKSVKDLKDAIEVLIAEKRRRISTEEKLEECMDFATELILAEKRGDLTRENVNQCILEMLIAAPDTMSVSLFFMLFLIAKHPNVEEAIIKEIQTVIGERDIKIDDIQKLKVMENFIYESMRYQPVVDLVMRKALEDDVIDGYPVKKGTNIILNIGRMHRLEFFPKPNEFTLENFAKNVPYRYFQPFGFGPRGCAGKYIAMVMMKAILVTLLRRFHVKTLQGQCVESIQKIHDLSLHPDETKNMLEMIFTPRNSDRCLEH

**Q.** For `CCCCCCCCCCO[C@@H]1O[C@H](CO)[C@@H](O)[C@H](O)[C@H]1O`, which Potency [1] is on record?
**A.** inconclusive: 61.1 µM [cytotoxic]

**Q.** And the Potency [2]?
**A.** inconclusive: 61.6 µM [cytotoxic, partial curve, poor fit]

**Q.** And the Potency [3]?
**A.** inconclusive: 68.6 µM [inhibitor]

**Q.** And the Potency [4]?
**A.** inactive

**Q.** Which Potency [1] does the source give for `CCCCCCCCCCN` here?
**A.** inconclusive: 69 µM [rising, single point]

**Q.** And the Potency [5]?
**A.** inconclusive: 24.3 µM [cytotoxic, single point]

**Q.** And the Potency [6]?
**A.** inconclusive: 22 µM [cytotoxic, full curve] and inconclusive: 4.36 µM [cytotoxic, full curve, poor fit]

**Q.** Which Potency [1] does the source give for `CCC(Cl)CC(Cl)C(Cl)C(Cl)C(Cl)C(C)Cl` (centres undefined) here?
**A.** inactive

**Q.** And the Potency [7]?
**A.** inconclusive: 2.38 µM [rising, partial curve, poor fit]

**Q.** What about the Potency [8] of the same compound?
**A.** inconclusive: 1.89 µM [rising, partial curve]

**Q.** And the activation [9]?
**A.** inconclusive: 2.51% [phenotype inactive] [at 18 µM]

**Q.** What about the Potency [10] of the same compound?
**A.** active: 0.594 µM

**Q.** And the Potency [11]?
**A.** inconclusive: 0.211 µM [rising, full curve]

**Q.** Which results are given for `O=S(=O)(Cl)c1c(Cl)cccc1Cl`?
**A.** activity change, negative = cytotoxicity [1]: inconclusive: 8.38%; Potency [7]: inconclusive: 3.87 µM [rising, full curve, poor fit]; Potency [12]: inactive

**Q.** Which Potency [1] does the source give for `CC(=O)N(CC(O)CO)c1c(I)c(C(=O)NCC(O)CO)c(I)c(C(=O)NCC(O)CO)c1I` (centres undefined) here?
**A.** inactive

**Q.** And the Potency [13]?
**A.** inactive

**Q.** What about the Potency [3] of the same compound?
**A.** inactive

**Q.** What about the Potency [11] of the same compound?
**A.** inactive

**Q.** And the Potency [14]?
**A.** inconclusive: 29.8 µM [rising, partial curve, poor fit]

**Q.** Which Potency [1] does the source give for `COCC(C)N` (centres undefined) here?
**A.** inconclusive: 0.943 µM [rising, partial curve]

**Q.** What about the activity change, negative = inhibition [7] of the same compound?
**A.** inconclusive: 1.5%

**Q.** For `CC(C)(c1cc(Br)c(OCC(Br)CBr)c(Br)c1)c1cc(Br)c(OCC(Br)CBr)c(Br)c1` (centres undefined), which Potency [1] is on record?
**A.** inactive

**Q.** What about the Potency [15] of the same compound?
**A.** inactive

**Q.** Which Potency [1] does the source give for `Nc1cccc2c(N)cccc12` here?
**A.** active: 54.5 µM

**Q.** And the activation [8]?
**A.** inconclusive: 31.7%

**Q.** And the Potency [13]?
**A.** inconclusive: 68.6 µM [cytotoxic]

**Q.** What about the Potency [16] of the same compound?
**A.** inconclusive: 56.1 µM [inhibitor, partial curve]

**Q.** What about the Potency [4] of the same compound?
**A.** inactive

**Q.** What about the Potency [6] of the same compound?
**A.** inconclusive: 61.6 µM [single point]

**Q.** And the Potency [10]?
**A.** inconclusive: 45 µM [inhibitor]

**Q.** And the Potency [17]?
**A.** inconclusive: 27.3 µM [cytotoxic, single point]

**Q.** What about the Potency [12] of the same compound?
**A.** inconclusive: 68.6 µM [inhibitor, partial curve]
